Experimental data as given in the supplement of paper PMC9151546.
Single values are uncertain, as repeats are few or missing.

Tests used:
CHO-K1 [1] = experiment: micronucleus frequency (% of nucleated events); higher = more micronuclei (genotoxic)
CHO-K1 [2] = experiment: hypodiploid nuclei frequency (% of nucleated events); higher = more hypodiploid events (aneugenic)
CHO-K1 [3] = experiment: relative survival (nuclei to bead ratio vs DMSO control) (% of vehicle control); higher = more surviving cells
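For hypodiploid nuclei frequency (% of nucleated events) in this document: hypodiploid nuclei gated on a flow cytometer with 488 nm excitation after SYTOX Green staining, cultures at 37 °C, positive controls vinblastine without S9 and cyclophosphamide with S9.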
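For micronucleus frequency (% of nucleated events) in this document: cells lysed with nuclei stained by SYTOX Green, then micronucleus-gated events counted against nucleated events by flow cytometry with 488 nm excitation.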
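For relative survival (nuclei to bead ratio vs DMSO control) in this document: Lysed-cell nuclei stained with SYTOX Green and counted against counting beads by flow cytometry at 488 nm excitation, with vinblastine (no S9) and cyclophosphamide (plus S9) as positive controls.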

NNC(=O)c1ccncc1 [Isoniazid]
Conditions | hypodiploid nuclei frequency, CHO-K1 [2] [%] | micronucleus frequency, CHO-K1 [1] [%] | relative survival, CHO-K1 [3]
concentration: 1.98 (µM), S9 metabolic activation: with S9, exposure time: 3-4 hours | 0.44 | 2.92 | 80.2
concentration: 1.98 (µM), S9 metabolic activation: without S9, exposure time: 24 hours | 1.16 | 2.48 | 103
concentration: 2.48 (µM), S9 metabolic activation: with S9, exposure time: 3-4 hours | 0.4 | 2.52 | 73.3
concentration: 2.48 (µM), S9 metabolic activation: without S9, exposure time: 24 hours | 1.04 | 2 | 94.5
concentration: 3.1 (µM), S9 metabolic activation: with S9, exposure time: 3-4 hours | 0.44 | 2.48 | 84.8
concentration: 3.1 (µM), S9 metabolic activation: without S9, exposure time: 24 hours | 1.26 | 2.82 | 83.9
concentration: 3.87 (µM), S9 metabolic activation: with S9, exposure time: 3-4 hours | 0.46 | 2 | 86
concentration: 3.87 (µM), S9 metabolic activation: without S9, exposure time: 24 hours | 1.18 | 2.86 | 108
concentration: 4.84 (µM), S9 metabolic activation: with S9, exposure time: 3-4 hours | 0.44 | 2.2 | 84.1
concentration: 4.84 (µM), S9 metabolic activation: without S9, exposure time: 24 hours | 1.1 | 2.1 | 131
concentration: 6.05 (µM), S9 metabolic activation: with S9, exposure time: 3-4 hours | 0.42 | 2.28 | 86.8
concentration: 6.05 (µM), S9 metabolic activation: without S9, exposure time: 24 hours | 0.8 | 1.84 | 110
concentration: 7.56 (µM), S9 metabolic activation: with S9, exposure time: 3-4 hours | 0.44 | 3.06 | 94.7
concentration: 7.56 (µM), S9 metabolic activation: without S9, exposure time: 24 hours | 1.36 | 1.84 | 119
concentration: 9.45 (µM), S9 metabolic activation: with S9, exposure time: 3-4 hours | 0.34 | 2.76 | 96.5
concentration: 9.45 (µM), S9 metabolic activation: without S9, exposure time: 24 hours | 1.18 | 1.84 | 115
concentration: 11.8 (µM), S9 metabolic activation: with S9, exposure time: 3-4 hours | 0.3 | 1.7 | 111
concentration: 11.8 (µM), S9 metabolic activation: without S9, exposure time: 24 hours | 0.78 | 1.96 | 88.5
concentration: 14.8 (µM), S9 metabolic activation: with S9, exposure time: 3-4 hours | 0.26 | 1.82 | 88.3
concentration: 14.8 (µM), S9 metabolic activation: without S9, exposure time: 24 hours | 1.28 | 1.98 | 83
concentration: 18.5 (µM), S9 metabolic activation: with S9, exposure time: 3-4 hours | 0.28 | 1.76 | 90.1
concentration: 18.5 (µM), S9 metabolic activation: without S9, exposure time: 24 hours | 1.38 | 2.36 | 85.8
concentration: 23.1 (µM), S9 metabolic activation: with S9, exposure time: 3-4 hours | 0.28 | 1.82 | 91.9
concentration: 23.1 (µM), S9 metabolic activation: without S9, exposure time: 24 hours | 1.5 | 2.66 | 76.2
concentration: 28.8 (µM), S9 metabolic activation: with S9, exposure time: 3-4 hours | 0.22 | 1.82 | 99.4
concentration: 28.8 (µM), S9 metabolic activation: without S9, exposure time: 24 hours | 1.12 | 2.64 | 84.8
concentration: 36 (µM), S9 metabolic activation: with S9, exposure time: 3-4 hours | 0.46 | 1.48 | 89.1
concentration: 36 (µM), S9 metabolic activation: without S9, exposure time: 24 hours | 1.76 | 2.7 | 101
concentration: 45.1 (µM), S9 metabolic activation: with S9, exposure time: 3-4 hours | 0.22 | 1.54 | 93.4
concentration: 45.1 (µM), S9 metabolic activation: without S9, exposure time: 24 hours | 1.82 | 2.48 | 109
concentration: 56.3 (µM), S9 metabolic activation: with S9, exposure time: 3-4 hours | 0.36 | 1.34 | 97.7
concentration: 56.3 (µM), S9 metabolic activation: without S9, exposure time: 24 hours | 1.66 | 2.74 | 109
concentration: 70.4 (µM), S9 metabolic activation: with S9, exposure time: 3-4 hours | 0.2 | 1.72 | 106
concentration: 70.4 (µM), S9 metabolic activation: without S9, exposure time: 24 hours | 1.74 | 3.06 | 91
concentration: 88 (µM), S9 metabolic activation: with S9, exposure time: 3-4 hours | 0.26 | 1.64 | 95.4
concentration: 88 (µM), S9 metabolic activation: without S9, exposure time: 24 hours | 2.5 | 2.48 | 74.9

COC(=O)c1ccccc1N [Methyl 2-aminobenzoate]
Conditions | hypodiploid nuclei frequency, CHO-K1 [2] [%] | micronucleus frequency, CHO-K1 [1] [%] | relative survival, CHO-K1 [3]
concentration: 4.5 (µM), S9 metabolic activation: with S9, exposure time: 3-4 hours | 0.4 | 1.32 | 121
concentration: 4.5 (µM), S9 metabolic activation: without S9, exposure time: 24 hours | 0.96 | 1.16 | 112
concentration: 5.63 (µM), S9 metabolic activation: with S9, exposure time: 3-4 hours | 0.28 | 1.16 | 111
concentration: 5.63 (µM), S9 metabolic activation: without S9, exposure time: 24 hours | 0.84 | 0.94 | 125
concentration: 7.04 (µM), S9 metabolic activation: with S9, exposure time: 3-4 hours | 0.12 | 0.76 | 128
concentration: 7.04 (µM), S9 metabolic activation: without S9, exposure time: 24 hours | 0.52 | 1.18 | 126
concentration: 8.8 (µM), S9 metabolic activation: with S9, exposure time: 3-4 hours | 0.16 | 0.82 | 129
concentration: 8.8 (µM), S9 metabolic activation: without S9, exposure time: 24 hours | 0.82 | 1.3 | 105
concentration: 11 (µM), S9 metabolic activation: with S9, exposure time: 3-4 hours | 0.2 | 0.76 | 110
concentration: 11 (µM), S9 metabolic activation: without S9, exposure time: 24 hours | 0.76 | 1.48 | 120
concentration: 13.7 (µM), S9 metabolic activation: with S9, exposure time: 3-4 hours | 0.24 | 0.66 | 119
concentration: 13.7 (µM), S9 metabolic activation: without S9, exposure time: 24 hours | 0.84 | 1.14 | 99.7
concentration: 17.2 (µM), S9 metabolic activation: with S9, exposure time: 3-4 hours | 0.24 | 0.84 | 118
concentration: 17.2 (µM), S9 metabolic activation: without S9, exposure time: 24 hours | 0.52 | 1.14 | 112
concentration: 21.5 (µM), S9 metabolic activation: with S9, exposure time: 3-4 hours | 0.12 | 0.94 | 102
concentration: 21.5 (µM), S9 metabolic activation: without S9, exposure time: 24 hours | 0.74 | 1.66 | 88.4
concentration: 26.8 (µM), S9 metabolic activation: with S9, exposure time: 3-4 hours | 0.18 | 0.88 | 155
concentration: 26.8 (µM), S9 metabolic activation: without S9, exposure time: 24 hours | 1.2 | 0.92 | 97.6
concentration: 33.6 (µM), S9 metabolic activation: with S9, exposure time: 3-4 hours | 0.3 | 0.88 | 159
concentration: 33.6 (µM), S9 metabolic activation: without S9, exposure time: 24 hours | 1.22 | 1.34 | 105
concentration: 41.9 (µM), S9 metabolic activation: with S9, exposure time: 3-4 hours | 0.1 | 0.98 | 124
concentration: 41.9 (µM), S9 metabolic activation: without S9, exposure time: 24 hours | 1.08 | 1.32 | 89.3
concentration: 52.4 (µM), S9 metabolic activation: with S9, exposure time: 3-4 hours | 0.14 | 0.7 | 118
concentration: 52.4 (µM), S9 metabolic activation: without S9, exposure time: 24 hours | 0.82 | 1.06 | 116
concentration: 65.5 (µM), S9 metabolic activation: with S9, exposure time: 3-4 hours | 0.26 | 1.3 | 105
concentration: 65.5 (µM), S9 metabolic activation: without S9, exposure time: 24 hours | 0.92 | 1.6 | 102
concentration: 81.9 (µM), S9 metabolic activation: with S9, exposure time: 3-4 hours | 0.14 | 0.98 | 115
concentration: 81.9 (µM), S9 metabolic activation: without S9, exposure time: 24 hours | 1.24 | 1.72 | 99
concentration: 102 (µM), S9 metabolic activation: with S9, exposure time: 3-4 hours | 0.32 | 1.24 | 127
concentration: 102 (µM), S9 metabolic activation: without S9, exposure time: 24 hours | 1.12 | 2.38 | 114
concentration: 128 (µM), S9 metabolic activation: with S9, exposure time: 3-4 hours | 0.16 | 1.08 | 110
concentration: 128 (µM), S9 metabolic activation: without S9, exposure time: 24 hours | 1.16 | 1.32 | 97.6
concentration: 160 (µM), S9 metabolic activation: with S9, exposure time: 3-4 hours | 0.46 | 1.38 | 85.7
concentration: 160 (µM), S9 metabolic activation: without S9, exposure time: 24 hours | 1.4 | 1.74 | 87.3
concentration: 200 (µM), S9 metabolic activation: with S9, exposure time: 3-4 hours | 0.39 | 1.71 | 63.5
concentration: 200 (µM), S9 metabolic activation: without S9, exposure time: 24 hours | 1.62 | 1.62 | 75.1
